Laboratory results reported in US20220177544A1 (BIONTECH CELL AND GENE THERAPIES, published 2022).

Experiments:
Test in all cases: cell-based or functional assay
[1] = target: T1, hIL2RA (interleukin 2 receptor subunit alpha, CD25), wild type (Homo sapiens, UniProt P01589 22-272)
T1 sequence: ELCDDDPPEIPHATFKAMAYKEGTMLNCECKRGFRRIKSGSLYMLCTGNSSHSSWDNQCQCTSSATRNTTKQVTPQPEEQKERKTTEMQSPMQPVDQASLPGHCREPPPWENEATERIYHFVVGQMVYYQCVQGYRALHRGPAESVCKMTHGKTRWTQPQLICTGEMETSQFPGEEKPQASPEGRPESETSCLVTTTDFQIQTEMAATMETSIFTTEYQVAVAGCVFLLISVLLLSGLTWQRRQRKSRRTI

[2] = target: T2, intermediate-affinity IL2 receptor (IL2Rβγ) (human, UniProt P14784 27-551; P31785 23-369)
T2 sequence (looked up) 1: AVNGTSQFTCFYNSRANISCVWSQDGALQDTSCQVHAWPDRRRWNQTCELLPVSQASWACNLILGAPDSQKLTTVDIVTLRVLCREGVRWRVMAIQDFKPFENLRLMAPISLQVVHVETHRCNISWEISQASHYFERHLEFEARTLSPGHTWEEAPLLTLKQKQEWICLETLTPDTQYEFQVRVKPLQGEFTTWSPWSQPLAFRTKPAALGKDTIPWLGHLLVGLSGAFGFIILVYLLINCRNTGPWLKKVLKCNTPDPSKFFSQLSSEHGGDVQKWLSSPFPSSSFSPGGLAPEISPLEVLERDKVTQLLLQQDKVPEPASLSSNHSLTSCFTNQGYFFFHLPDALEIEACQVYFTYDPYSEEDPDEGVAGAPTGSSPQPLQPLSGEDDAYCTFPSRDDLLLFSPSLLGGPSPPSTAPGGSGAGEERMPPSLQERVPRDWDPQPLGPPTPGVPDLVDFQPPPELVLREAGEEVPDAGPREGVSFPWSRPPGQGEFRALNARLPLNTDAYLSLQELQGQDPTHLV
T2 sequence (looked up) 2: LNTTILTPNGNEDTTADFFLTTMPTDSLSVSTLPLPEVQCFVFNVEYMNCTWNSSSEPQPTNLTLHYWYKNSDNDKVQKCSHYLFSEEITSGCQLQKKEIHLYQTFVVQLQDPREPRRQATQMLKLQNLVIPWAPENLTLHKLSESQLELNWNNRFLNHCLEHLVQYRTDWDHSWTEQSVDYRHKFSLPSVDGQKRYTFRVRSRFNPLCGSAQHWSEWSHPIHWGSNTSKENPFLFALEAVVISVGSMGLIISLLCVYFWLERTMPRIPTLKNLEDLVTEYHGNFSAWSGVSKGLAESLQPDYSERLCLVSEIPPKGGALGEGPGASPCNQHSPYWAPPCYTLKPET

hIL2RA_mut2 (K38E) [3] = target: T3, hIL2RA_mut2 (K38E) (Homo sapiens, UniProt P01589 22-272)
T3 sequence: T1 sequence with K38E

hIL2RA_mut1 (E29K, K38E) [4] = target: T4, hIL2RA_mut1 (E29K, K38E) (Homo sapiens, UniProt P01589 22-272)
T4 chain: T1 sequence with E29K, K38E

hIL2RA_mut3 (E29K) [5] = target: T5, hIL2RA_mut3 (E29K) (Homo sapiens, UniProt P01589 22-272)
T5 sequence: T1 sequence with E29K

[6] = target: T6, hIL2RA_mut4 (E1K, E29K, K38E) (Homo sapiens, UniProt P01589 23-272)
T6 chain: T1 sequence with E1K, E29K, K38E

hIL2RA_mut2 (K38E) [7] = target: T3, hIL2RA_mut2 (K38E); remark: listed apart in the source
[8] = target: T1, hIL2RA (interleukin 2 receptor subunit …); remark: listed apart in the source
hIL2RA_mut1 (E29K, K38E) [9] = target: T4, hIL2RA_mut1 (E29K, K38E)
hIL2RA_mut3 (E29K) [10] = target: T5, hIL2RA_mut3 (E29K); remark: listed apart in the source
[11] = target: T6, hIL2RA_mut4 (E1K, E29K, K38E)

B1: hAlb-hIL2 (ligand)
chain: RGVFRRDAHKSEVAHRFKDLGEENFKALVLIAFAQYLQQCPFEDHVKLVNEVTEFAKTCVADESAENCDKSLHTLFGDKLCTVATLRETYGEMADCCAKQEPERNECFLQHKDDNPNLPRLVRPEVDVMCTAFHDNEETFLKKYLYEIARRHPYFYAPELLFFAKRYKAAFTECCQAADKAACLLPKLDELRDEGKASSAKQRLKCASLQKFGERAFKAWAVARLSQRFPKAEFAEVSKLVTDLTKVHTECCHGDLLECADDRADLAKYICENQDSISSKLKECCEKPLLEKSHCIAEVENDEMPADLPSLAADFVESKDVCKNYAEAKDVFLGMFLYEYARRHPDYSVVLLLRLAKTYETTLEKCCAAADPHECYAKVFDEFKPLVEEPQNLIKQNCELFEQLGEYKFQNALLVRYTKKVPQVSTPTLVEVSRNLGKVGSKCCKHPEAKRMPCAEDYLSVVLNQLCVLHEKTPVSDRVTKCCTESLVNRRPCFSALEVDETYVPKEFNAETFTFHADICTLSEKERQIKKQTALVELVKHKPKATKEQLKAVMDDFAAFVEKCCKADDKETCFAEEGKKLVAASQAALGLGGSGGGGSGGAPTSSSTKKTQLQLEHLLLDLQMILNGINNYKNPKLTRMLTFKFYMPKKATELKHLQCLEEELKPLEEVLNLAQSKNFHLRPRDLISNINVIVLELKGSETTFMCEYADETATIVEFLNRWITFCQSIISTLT
- EC50 [%-supernatant], STAT5 phosphorylation on CD4+CD25+ regulatory T cells (natural CD25) [1]: 0.0175 %-supernatant
- EC50 [%-supernatant], STAT5 phosphorylation on hIL2RA-electroporated CD8+ T cells [1]: 0.0062 %-supernatant
- EC50 [%-supernatant], proliferation of TF-1_IL2Rβγ cells (CellTiter-Glo) [2]: 4.65 %-supernatant
- fold-increased potency on hIL2RA mutant versus hIL2RA wild-type electroporated CD8+ T cells (ratio of pSTAT5 EC50 values) (hIL2RA_mut2 (K38E) [3]): 0.063 fold
- fold-increased potency on hIL2RA mutant versus hIL2RA wild-type electroporated CD8+ T cells (ratio of pSTAT5 EC50 values) (hIL2RA_mut1 (E29K, K38E) [4]): 0.005 fold
- fold-increased potency on hIL2RA mutant versus hIL2RA wild-type electroporated CD8+ T cells (ratio of pSTAT5 EC50 values) (hIL2RA_mut3 (E29K) [5]): 0.097 fold
- fold-increased potency on hIL2RA mutant versus hIL2RA wild-type electroporated CD8+ T cells (ratio of pSTAT5 EC50 values) [6]: 0.001 fold
- EC50 [%-supernatant], STAT5 phosphorylation on CD8+ T cells electroporated with hIL2RA_mut2 (hIL2RA_mut2 (K38E) [7]): 0.107 %-supernatant
- EC50 [%-supernatant], STAT5 phosphorylation on CD8+ T cells electroporated with hIL2RA [8]: 0.0067 %-supernatant
- EC50 [%-supernatant], STAT5 phosphorylation on CD8+ T cells electroporated with hIL2RA_mut1 (hIL2RA_mut1 (E29K, K38E) [9]): 1.43 %-supernatant
- EC50 [%-supernatant], STAT5 phosphorylation on CD8+ T cells electroporated with hIL2RA_mut3 (hIL2RA_mut3 (E29K) [10]): 0.069 %-supernatant
- EC50 [%-supernatant], STAT5 phosphorylation on CD8+ T cells electroporated with hIL2RA_mut4 [11]: 7.76 %-supernatant

Residue numbers refer to the chain shown, from its start.
